SMILES strings stand for the structures. The whole screen tested about 43,000 compounds, of which about 200 (0.47%) were called active. About 12% were inconclusive and are not listed. Calls come from the whole dose curve; as a rule, active = well fitted cell-killing curve with a large enough effect; inconclusive = small, poorly fitted or top-dose-only effect, or effect the other way; inactive = flat fitted curve, though single readings scatter. This is one part of the list.
% is set by controls: 0 for no effect and ±100 for the full control effect; potency is the fitted concentration of half-maximal effect.

A short description of the assay: Cell viability qHTS assay in S16 Pmp22-F2sN cells. Note: nearly all actives have a fitted effect of over 65% in size. The note with it: S16 Pmp22-F2sN Schwann cells (luciferase reporters placed in the Pmp22 gene) viability, CellTiter-Glo, 24 h; series mostly up to 57.5 µM; activity change, negative = cytotoxicity: at the top concentration. In short, it runs like this:
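CellTiter-Glo counter-screen, qHTS, 1536-well. Cells: S16(c9) Pmp22-F2sN, 500-1,000/well in DMEM + 10% FBS. Cpd 23 nL pin transfer, 24 h, 37C/5% CO2. Read: luminescence, CCD imager.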
With `CCCCc1nn2c(=O)cc(COC(=O)c3ccc(NC(=O)C4CCCCC4)cc3)nc2s1`, the “activity change, negative = cytotoxicity” value is inactive: 11.6%.

On to `CCOc1ccc(NC(=O)Cn2c(=O)n(CCC(=O)NCCc3ccccc3)c(=O)c3ccccc32)cc1`, for which the “activity change, negative = cytotoxicity” value was inactive: 13.3%. Still for that read-out and setting: in the case of `CCc1nn2c(=O)cc(COC(=O)C(c3ccccc3)c3ccccc3)nc2s1` it was inactive: 26.8%; in that of `CCOC(=O)c1ccc(Nc2cc(-c3ccccc3)nc(C)n2)cc1`, inactive: 3.67%.

For the molecule `COc1ccc(-n2nc(C(=O)NCCc3cccc(C)c3)c3c4ccccc4n(C)c3c2=O)cc1Cl`, the “activity change, negative = cytotoxicity” value was inactive: 0.772%.

In the case of `Cc1cc(C)cc(N(CC(=O)NCc2ccccc2Cl)S(=O)(=O)c2c(C)noc2C)c1`, the “activity change, negative = cytotoxicity” value is inactive: 1.39%.

For `COC(=O)CC1Oc2ccccc2-n2cc(-c3ccc(Cl)cc3)nc21` (stereo not drawn), the “activity change, negative = cytotoxicity” value is inactive: 24.1%. `Cc1ccccc1C(=O)Nc1nnc(S(=O)(=O)N2CCCCCC2)s1`: the “activity change, negative = cytotoxicity” value is inactive: 4.99%. On to `COc1ccc(CNC(=O)Cc2csc3nc(-c4ccc(C)cc4)cn23)cc1`, for which the “activity change, negative = cytotoxicity” value is inactive: 17.2%. As for `O=C(COc1ccccc1)Nc1ccccc1C(=O)OCc1cc(=O)n2nc(C3CC3)sc2n1`, the “activity change, negative = cytotoxicity” value is inactive: 3.02%. Take `CCOC(=O)Cn1c(=O)n(-c2ccccc2OC)c2nc(-c3ccccc3C)nc(C(N)=O)c21`: the “activity change, negative = cytotoxicity” value is inactive: 17.7%. Regarding `O=C(NCCc1ccccc1)C(=O)Nc1cccc(Br)c1`, the “activity change, negative = cytotoxicity” value is inactive: -5.23%. For the molecule `Oc1c(C(c2ccccc2)N2CCN(c3ccccc3)CC2)sc2nc(-c3ccco3)nn12` (stereo not drawn), the “activity change, negative = cytotoxicity” value was inactive: -1.73%. Consider `Cn1c(CCNC(=O)c2ccco2)nc2cc(NC(=O)COc3ccc(Cl)cc3)ccc21`, for which the “activity change, negative = cytotoxicity” value is inactive: 2.18%.

As to `O=C(CSc1nc(=O)[nH]c2c1CCC2)NCc1ccccc1`, the “activity change, negative = cytotoxicity” value was inactive: 28.8%. For the molecule `Cc1ccc(OCC(=O)Nc2ccc(C(=O)OCc3cc(=O)n4c(C)csc4n3)cc2)cc1`, the “activity change, negative = cytotoxicity” value is inactive: -10.8%. On the same count and under the same terms, in the case of `O=C(NCC12CC3CC(CC(C3)C1)C2)c1cc2nc(-c3ccc(F)cc3)cc(C(F)(F)F)n2n1` it was inactive: 8.69%; in that of `O=C(Nc1ccc(F)cc1F)c1ccc(-n2cnnc2)cc1`, inactive: -7.67%.

Turning to `CCc1ccc(C2c3c(oc4ccc(C)cc4c3=O)C(=O)N2c2nc(C)c(C)s2)cc1` (stereo not drawn), the “activity change, negative = cytotoxicity” value was inactive: -1.96%. `COc1cc(NC(=O)Cn2cc(S(=O)(=O)c3ccccc3)c(=O)c3ccccc32)cc(OC)c1`: the “activity change, negative = cytotoxicity” value was inactive: -0.842%. With `COc1cccc(-c2ccc3c(N)c(C(=O)Nc4ccc(C)c(F)c4)sc3n2)c1`, the “activity change, negative = cytotoxicity” value was inactive: -0.792%.

With `COc1ccc(-c2cc(C(F)(F)F)nc(SCCC(=O)Nc3c(C)cccc3C)n2)cc1`, the “activity change, negative = cytotoxicity” value was inactive: -5.54%. As for `CCc1ccccc1NC(=O)Cc1c(C(=O)O)[nH]c2ccc(Cl)cc12`, the “activity change, negative = cytotoxicity” value is inactive: 14.6%. In the case of `Cc1ccc(Cn2c(CNC(=O)c3ccccc3Br)nc3cccnc32)cc1`, the “activity change, negative = cytotoxicity” value is inactive: 2.55%. In the case of `COc1ccc(N2CCN(C(=O)Nc3cccc(C(F)(F)F)c3)CC2)cc1`, the “activity change, negative = cytotoxicity” value is inactive: -21%.

As to `CC(C)CNC(=O)C1=CC(c2ccc3c(c2)OCO3)=NS(=O)(=O)N1C`, the “activity change, negative = cytotoxicity” value is inactive: 2.13%.

On to `Cc1ccc(-n2c(=O)c3oc4ccccc4c3n(CC(=O)Nc3ccccc3)c2=O)cc1C`, for which the “activity change, negative = cytotoxicity” value was inactive: 4.41%.

On to `Cc1cc(-n2c(C)nc3ccccc3c2=O)ccc1NC(=O)c1cccc([N+](=O)[O-])c1`, for which the “activity change, negative = cytotoxicity” value is inactive: 11.7%. Take `Cc1cccc(NC(=O)CSc2cc(C)c3ccccc3n2)c1`: the “activity change, negative = cytotoxicity” value was inactive: 8.34%. Consider `Cc1ccc(NC(=O)C2CCCN2S(=O)(=O)c2cccc3cccnc23)cc1C` (stereo not drawn), for which the “activity change, negative = cytotoxicity” value is inactive: 3.42%. Turning to `Cn1ccnc1SCC(=O)Nc1cc(Cl)ccc1Cl`, the “activity change, negative = cytotoxicity” value was inactive: 17.7%. As for `CCCCNC(=O)CCc1c(C)nc2c(c(C)nn2-c2ccccc2)c1C`, the “activity change, negative = cytotoxicity” value is inactive: 16%. Same read-out and setting: in the case of `CCN(CC)c1ccc(C2C(C(N)=O)=C(C)Nc3ncnn32)cc1` (stereo not drawn) it was inactive: 4.04%; in that of `CCC(C(=O)Nc1ccc(C(C)=O)cc1)n1c(C)c2cnn(-c3ccccc3)c(=O)c2c1C` (stereo not drawn), inactive: -0.513%; in that of `COc1ccc(NS(=O)(=O)c2ccc3[nH]c4c(c3c2)CCCCCC4)cc1`, inactive: -18.6%. On to `Cn1c(=O)c2c(nc(SCC(=O)Nc3ccc(F)cc3)n2Cc2ccccc2)n(C)c1=O`, for which the “activity change, negative = cytotoxicity” value was inactive: -4.41%. In the case of `Fc1ccc(CNc2nc(-c3ccccc3)cc(C(F)(F)F)n2)cc1`, the “activity change, negative = cytotoxicity” value is inactive: 2.22%.

In the case of `O=C(NCCc1ccccc1)c1cc(Sc2ccc(F)cc2F)nc2ccccc12`, the “activity change, negative = cytotoxicity” value is inactive: 6.92%. Regarding `Cc1ccccc1CN1CCCN(CC(=O)Nc2c(C)cccc2C)S1(=O)=O`, the “activity change, negative = cytotoxicity” value is inactive: 10.9%.

Turning to `COc1cccc(OCc2nc3ccccc3n2CCOc2cccc(C)c2)c1`, the “activity change, negative = cytotoxicity” value is inactive: -0.63%. As for `Cc1cccc(CS(=O)(=O)c2ncc(Cl)c(C(=O)NCc3ccccc3)n2)c1`, the Potency was active: 20 µM. In the case of `Cc1ccccc1CS(=O)(=O)Cc1ccc(C(=O)NCc2ccc(F)cc2)o1`, the “activity change, negative = cytotoxicity” value is inactive: -14.6%. In the case of `Cc1ccc(C)c(NC(=O)c2cc(=O)c3cc(C)cc(C)c3o2)c1`, the “activity change, negative = cytotoxicity” value was inactive: 3.8%. For the molecule `Cc1ccc(NC(=O)Cn2c(=O)ccc3cc(S(=O)(=O)N4CCC(C)CC4)ccc32)cc1Cl`, the “activity change, negative = cytotoxicity” value is inactive: 10.5%.

Consider `COc1cccc(NC(=O)CCNC(=O)Cn2ccc3ccccc3c2=O)c1`, for which the “activity change, negative = cytotoxicity” value was inactive: -0.555%. Regarding `O=C1CC(c2ccc(Cl)cc2)N=C(NC(=O)c2ccccc2)N1` (stereo not drawn), the “activity change, negative = cytotoxicity” value is inactive: -1.49%.

Regarding `COCCNc1ncnc2c1c(-c1ccccc1)cn2-c1cccc(Cl)c1`, the “activity change, negative = cytotoxicity” value is inactive: -0.988%. With `CCc1ccc(NCc2cc3cc4c(cc3n(CC(=O)Nc3ccc(F)cc3)c2=O)OCCO4)cc1`, the “activity change, negative = cytotoxicity” value was inactive: 18%.

(Values after PubChem BioAssay AID1508642 (National Center for Advancing Translational Sciences (NCATS), 2021).)
